Experimental data: the supplement of paper PMC10126150
Values marked as one replicate rest on one cluster of the flow cell; about a third of the high ones do not repeat.

system: ATP; test: switch fluorescence ratio, 500 uM ATP over buffer (Cy3 cluster intensity, sum of 5 cycles each) (fold (ratio)); higher = stronger signal-on switching upon ATP binding; sequences stand for … in TCGTCGGCAGCGTCAGATGTGTATAAGAGACAGTTTTTTTTTTTTTTTTTTTTTTTTT…TC; settings: aptamer strand: ATP DNA aptamer (quencher-CACCTGGGGGAGTATTGCGGAGGAAGG + anchor), 100 nM annealed; ATP concentration: 500 uM; one replicate
In short: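 Clusters with intensities outside 100-1000 RFU were excluded. The remaining Cy3-labelled switching-strand clusters on a modified Illumina MiSeq flow-cell had been annealed to 100 nM quencher-labelled ATP aptamer and imaged in selection buffer, then after 15 min with 500 uM ATP at 22 °C, for five cycles separated by NaOH stripping and re-annealing. The fluorescence ratio, averaged per switch-domain sequence, is each cluster's summed target-cycle Cy3 intensity over its summed buffer-cycle Cy3 intensity.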
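Also: ATP exposure 15 min at 22 °C before imaging.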

| Sequence | switch fluorescence ratio |
| --- | --- |
| ACATATTAAA | 0.954 |
| ACATATTCAC | 1.07 |
| ACATCCATTC | 1.02 |
| ACATCCCTGC | 1.06 |
| ACATCCGTTC | 1.13 |
| ACATGACAGG | 1.08 |
| ACATGACCCG | 1.12 |
| ACATGAGTGG | 0.986 |
| ACATGCATAC | 3.16 |
| ACATGGGACG | 0.997 |
| ACATGTTCT | 1.02 |
| ACATTATATT | 0.999 |
| ACATTATTAG | 1.05 |
| ACATTCGGGG | 0.964 |
| ACATTCTGAA | 0.965 |
| ACATTGCTGA | 1.05 |
| ACATTGGCAC | 1.04 |
| ACATTGTAAA | 0.987 |
| ACATTTAATG | 0.994 |
| ACCAAAACAG | 1.09 |
| ACCAAGCGCC | 1.04 |
| ACCAATATGG | 1.02 |
| ACCACACGG | 1.26 |
| ACCACGTTGA | 0.983 |
| ACCACTCAGG | 1.22 |

| Sequence | switch fluorescence ratio |
| --- | --- |
| ACCACTGTAC | 1.6 |
| ACCACTTACC | 1.26 |
| ACCAGAGTGA | 1.18 |
| ACCAGATGT | 1.08 |
| ACCAGCAGGT | 0.998 |
| ACCAGCCAGT | 1.06 |
| ACCAGTAGTA | 0.983 |
| ACCAGTCAT | 0.976 |
| ACCAGTTTGT | 1.03 |
| ACCATGATCG | 1.02 |
| ACCATGTTGA | 0.953 |
| ACCATTAAAT | 0.979 |
| ACCATTTGCG | 0.992 |
| ACCATTTTAA | 0.953 |
| ACCATTTTCT | 1.03 |
| ACCCACCCCT | 1.35 |
| ACCCATACGT | 1.24 |
| ACCCATGGGC | 1 |
| ACCCCACGGA | 1.46 |
| ACCCCGCGTC | 2.7 |
| ACCCGATAGA | 1.04 |
| ACCCGGAAGT | 1.07 |
| ACCCGGCGGA | 1.05 |
| ACCCGGGCAC | 1.03 |
| ACCCTCGGCG | 1.05 |

| Sequence | switch fluorescence ratio |
| --- | --- |
| ACCCTGCGTT | 1.05 |
| ACCGAAAAGA | 0.99 |
| ACCGACACAG | 1.09 |
| ACCGACATCT | 1.15 |
| ACCGACGTGT | 1.11 |
| ACCGAGCGCT | 1.06 |
| ACCGATGGGG | 0.967 |
| ACCGATTTG | 0.991 |
| ACCGCGATGG | 4.05 |
| ACCGCGCTGC | 1.54 |
| ACCGCGGGCT | 1.01 |
| ACCGCGGGTC | 1.06 |
| ACCGCGGTCA | 1.02 |
| ACCGGAAACC | 1.13 |
| ACCGGAAGGA | 0.948 |
| ACCGGAATCA | 1.11 |
| ACCGGATCAA | 1.1 |
| ACCGGGAAAT | 1.03 |
| ACCGGTGTTG | 1.04 |
| ACCGTAAATG | 1.14 |
| ACCGTAGGTC | 0.987 |
| ACCGTCCGCT | 1.5 |
| ACCGTGGAGC | 1.06 |
| ACCGTGTGAA | 1.03 |
| ACCGTGTGAT | 1.04 |

| Sequence | switch fluorescence ratio |
| --- | --- |
| ACCGTTATCC | 1.2 |
| ACCGTTATTG | 1.02 |
| ACCGTTTCCG | 1.11 |
| ACCGTTTGCG | 0.974 |
| ACCTAACCT | 1.77 |
| ACCTAGCATA | 1.33 |
| ACCTAGGTA | 1.04 |
| ACCTATCGCA | 1.95 |
| ACCTCAATGA | 1.09 |
| ACCTCATGCA | 1.01 |
| ACCTCATGGG | 1.26 |
| ACCTCGATCT | 1.15 |
| ACCTCGGATG | 0.994 |
| ACCTCGGCTG | 1.13 |
| ACCTCGTAGC | 1.48 |
| ACCTCTAGCG | 1.1 |
| ACCTCTGATC | 1.11 |
| ACCTCTGGTG | 1.42 |
| ACCTGAACTT | 1.08 |
| ACCTGACCTA | 1.21 |
| ACCTGACGAA | 3.04 |
| ACCTGACGGA | 1.57 |
| ACCTGCCATT | 1.6 |
| ACCTGCGCTT | 2.59 |
| ACCTGCGGTC | 1.06 |

| Sequence | switch fluorescence ratio |
| --- | --- |
| ACCTGGGAA | 0.884 |
| ACCTGGGCA | 1.07 |
| ACCTGTTTTG | 0.973 |
| ACCTTCAGAC | 2.56 |
| ACCTTCGTTT | 1.11 |
| ACCTTGTCTC | 1.23 |
| ACGAAAAAAA | 1.01 |
| ACGAAAAGTA | 1.06 |
| ACGAAAGCA | 1.02 |
| ACGAAGCATG | 4.84 |
| ACGAATGCTC | 1.47 |
| ACGACCACCA | 1.6 |
| ACGACGGGGA | 1.07 |
| ACGACTCTCT | 1.12 |
| ACGACTTGTT | 1.01 |
| ACGAGCTTTC | 1.25 |
| ACGAGGTGTG | 1.06 |
| ACGAGTTAGA | 1.01 |
| ACGATCAAGC | 1.27 |
| ACGATGTTCT | 0.969 |
| ACGCAATGTT | 3.05 |
| ACGCAGATTA | 1.16 |
| ACGCCAAGTT | 1.04 |
| ACGCCCAATT | 1.04 |
| ACGCCGGGCG | 0.971 |

| Sequence | switch fluorescence ratio |
| --- | --- |
| ACGCCGGTTT | 1.01 |
| ACGCCGTCCG | 1.03 |
| ACGCCTGGAA | 1.05 |
| ACGCGCCTT | 0.972 |
| ACGCGGTTCC | 1.06 |
| ACGCGTATCC | 0.944 |
| ACGCGTTGGC | 1.03 |
| ACGCTAAGTC | 1.09 |
| ACGCTACGGG | 1.52 |
| ACGCTATTTT | 1.21 |
| ACGCTGTAGC | 1.02 |
| ACGCTTTTTA | 0.992 |
| ACGGAACTGG | 1.11 |
| ACGGACGACA | 1.33 |
| ACGGACTCAA | 1.41 |
| ACGGAGAAAA | 1.03 |
| ACGGATGCCT | 1.01 |
| ACGGCAACGC | 1.06 |
| ACGGCAGACA | 1.06 |
| ACGGCAGGT | 1.06 |
| ACGGCATTGT | 1.12 |
| ACGGCGTCCG | 0.98 |
| ACGGCTGACT | 0.992 |
| ACGGGAAATC | 1.06 |
| ACGGGAACAG | 1.05 |

| Sequence | switch fluorescence ratio |
| --- | --- |
| ACGGGAAGAA | 1.03 |
| ACGGGACCAT | 1.21 |
| ACGGGCACCG | 1.06 |
| ACGGGCTCCC | 1.1 |
| ACGGGGCTCG | 1.02 |
| ACGGGTAGTT | 1.01 |
| ACGGGTCCCG | 0.96 |
| ACGGGTGTTC | 1.08 |
| ACGGTAACTA | 1.02 |
| ACGGTACG | 0.997 |
| ACGGTAGAGA | 1.05 |
| ACGGTATCAT | 1.05 |
| ACGGTCAAAT | 1.1 |
| ACGGTCCCGG | 0.981 |
| ACGGTCGGAC | 1.06 |
| ACGGTCGGGT | 1.04 |
| ACGGTGCCCT | 1.08 |
| ACGGTTAGGA | 0.944 |
| ACGGTTCACG | 0.999 |
| ACGGTTTTGT | 0.954 |
| ACGTAAAATT | 1 |
| ACGTAAGAAG | 1.1 |
| ACGTAATATG | 1.28 |
| ACGTAATGGA | 1.17 |
| ACGTACGGAA | 1.47 |

| Sequence | switch fluorescence ratio |
| --- | --- |
| ACGTACGTCC | 1.46 |
| ACGTAGAATC | 1.18 |
| ACGTAGGACC | 1.04 |
| ACGTAGGAGC | 1.13 |
| ACGTAGGTCT | 1.01 |
| ACGTATAGTG | 1.05 |
| ACGTATGTAG | 0.987 |
| ACGTATTGCC | 1.08 |
| ACGTCAAATC | 1.36 |
| ACGTCCGGAA | 2.96 |
| ACGTCCTAAC | 1.15 |
| ACGTCTAAAA | 1.13 |
| ACGTCTTCGA | 0.971 |
| ACGTGAATAA | 1.11 |
| ACGTGAGGA | 1.03 |
| ACGTGCGTA | 0.975 |
| ACGTGGCATG | 1.01 |
| ACGTGGGCGA | 1.02 |
| ACGTGGTGGC | 0.969 |
| ACGTGTACCA | 1.2 |
| ACGTGTAGTT | 1.02 |
| ACGTGTGCAC | 0.989 |
| ACGTTAAGGT | 1.07 |
| ACGTTACCAT | 1.32 |
| ACGTTATGAT | 1.23 |
